Article PMC6919601, “Identification of Plasmodium dipeptidyl aminopeptidase allosteric inhibitors by high throughput screening” (PLoS ONE, 2019)
In all, about 110,000 compounds went through this assay and about 230 (0.21%) showed an effect of 50% or more. This is one part of the list.

molecular target: DPAP1 (Plasmodium falciparum, UniProt Q8IIJ9); assay: primary screen, percent inhibition; read by cleavage of a fluorogenic dipeptide substrate; higher = more effect of the substance; parameters: species or system P. falciparum D10 trophozoite lysates; single well
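Also: 30 min substrate incubation versus DMSO and 10 µM JCP410 controls.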

Chain of DPAP1 (Q8IIJ9 whole entry, looked up): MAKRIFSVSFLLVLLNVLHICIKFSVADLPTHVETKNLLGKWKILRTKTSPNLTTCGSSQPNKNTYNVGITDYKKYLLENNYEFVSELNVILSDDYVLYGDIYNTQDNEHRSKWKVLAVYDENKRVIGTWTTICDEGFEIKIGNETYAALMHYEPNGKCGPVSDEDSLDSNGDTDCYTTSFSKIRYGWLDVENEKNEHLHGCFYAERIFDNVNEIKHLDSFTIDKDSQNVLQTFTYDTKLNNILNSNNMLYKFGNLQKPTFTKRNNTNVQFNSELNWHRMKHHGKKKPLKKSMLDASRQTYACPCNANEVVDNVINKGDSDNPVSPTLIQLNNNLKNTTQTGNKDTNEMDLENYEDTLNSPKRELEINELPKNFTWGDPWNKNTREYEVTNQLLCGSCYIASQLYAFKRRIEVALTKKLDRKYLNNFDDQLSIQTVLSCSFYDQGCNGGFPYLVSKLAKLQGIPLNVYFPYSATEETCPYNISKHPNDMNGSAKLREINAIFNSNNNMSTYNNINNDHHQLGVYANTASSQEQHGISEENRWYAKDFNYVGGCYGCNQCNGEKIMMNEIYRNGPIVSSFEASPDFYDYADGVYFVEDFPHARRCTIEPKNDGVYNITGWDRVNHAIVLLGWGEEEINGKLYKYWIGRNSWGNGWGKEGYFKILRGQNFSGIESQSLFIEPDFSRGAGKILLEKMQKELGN

Row | Compound | % Inhibition @ 10 uM [%]
1 | CC1=C(C(=O)OCCc2ccccc2)C(c2ccc(C)cc2)C2=C(O)CCCC2=N1 (centres unmarked) | 2.7
2 | CC(C(=O)Nc1ccccn1)c1ccccc1 (centres unmarked) | -3.97
3 | O=C1C(=O)N(C2c3ccccc3Oc3ccccc32)c2ccccc21 | -6.06
4 | COCCNC(=O)c1cc(S(=O)(=O)N2CCCCC2)c[nH]1 | 5.18
5 | CC(C)C[C@@H](COC(=O)NCC#N)NC(=O)OCc1ccccc1 | 1.7
6 | Cc1[nH]c2ccccc2c1CCN1C(=O)C2CCCCC2C1=O (centres unmarked) | -5.23
7 | COc1cccc2c1cc1c(=O)n(CC(=O)NCCN(C)C3CCCCC3)nc(C)n12 | -3.47
8 | CCn1c2ccccc2c2cc(NS(=O)(=O)c3ccc(OC)cc3)ccc21 | 0.907
9 | O=C(Nc1ccc(F)cc1)c1ccccc1Br | 1.48
10 | COc1ccc(CCN2C(=O)CCCC2=O)cc1OC | -1.99
11 | CCc1c2c(nc3sc(C(=O)Nc4ccc(OC)cc4)c(N)c13)CC(C)(C)CC2=O | 18.2
12 | CCOc1ccc(-c2cc(C)n3nc(C(=O)N4CCOCC4)cc3n2)cc1 | 3.54
13 | CN(CCCc1ccccc1)CCc1ccccn1 | -7.93
14 | COc1cccc(CN2CCN(C(=O)c3cc(OC)cc(OC)c3)CC2)c1 | -3.37
15 | COC(=O)C1=CN(C(C)c2ccccc2)C=C(C(=O)OC)C1c1cccc(OC)c1OC (centres unmarked) | 1.88
16 | O=C(NCc1ccc(F)cc1)C(Cc1ccccc1)NS(=O)(=O)c1cccs1 (centres unmarked) | -1.73
17 | O=C1NC(c2cccnc2)Nc2sc3c(c21)CCCC3 (centres unmarked) | -2.17
18 | CCOC(=O)N1CCN(C(=O)c2cc3c(=O)oc4ccccc4c3s2)CC1 | 6.64
19 | C=CCOc1ccc(CNCCSc2nnnn2-c2ccccc2)cc1 | 0.596
20 | Cc1nn(-c2ccc(Br)cc2)c(O)c1/C=N/c1ccc(C(=O)O)cc1 | 3.65
21 | O=C(O)CCS(=O)(=O)Cc1ccccc1F | 1.27
22 | COc1ccc(CCNCc2ccccn2)cc1OC | -2.78
23 | Cc1cc(C)cc(NS(=O)(=O)c2ccc(NC(=O)c3ccc(F)cc3)cc2)c1 | -2.19
24 | Cc1[nH]c2ccccc2c1CN1CCN(CCO)CC1 | -0.292
25 | CCOC(=O)Nc1nnc(CC(C)C)s1 | -4.58
26 | CCc1cc(=O)oc2c3c(ccc12)OCN(c1cccnc1)C3 | 4.5

Row | Compound | % Inhibition @ 10 uM [%]
27 | CCOc1cccc(NC(=O)c2ccccc2)c1 | -1.61
28 | CCOc1ccc(C(=O)CC(=O)C(=O)NCc2ccc3c(c2)OCO3)cc1 | 0.494
29 | C=CCN1C(=O)N/C(=C/c2cccn2-c2ccc(Br)cc2)C1=O | 1.27
30 | Cc1cccn2c(=O)c(/C=C(\C#N)C(=O)N3CCOCC3)c(Oc3ccc(Br)cc3)nc12 | -3.23
31 | CCCN1CCC(NC(C)CCCC(C)(C)O)CC1 (centres unmarked) | 1.83
32 | Cc1nc2nc(SCC(=O)NCCCN3CCOCC3)nn2c(C)c1Cc1ccccc1 | 2.17
33 | O=c1c(O)c(-c2ccc(OCc3ccccc3)cc2)oc2ccccc12 | 1.12
34 | CCCc1ccc(-c2nc(NC(=O)CCC(=O)O)sc2C)cc1 | 1.96
35 | COc1cccc(CN(C(=O)c2oc3c(C)c(C)ccc3c2C)C2CCS(=O)(=O)C2)c1 (centres unmarked) | 1.82
36 | CC(C)NCC(O)COc1c(Cl)ccc2c1OCCO2 (centres unmarked) | 3.65
37 | Brc1ccc(N2N=C(c3ccccc3)NC2(c2ccccc2)c2ccccc2)c(Br)c1 | -6.99
38 | OC1CCN(CC2CC3C=CC2C3)CC1 (centres unmarked) | 1.62
39 | O=C(Cn1ncc2c1-c1ccccc1OC2)NCc1ccccc1 | 1.08
40 | Cc1nn(Cc2ccc(-c3nc(-c4nonc4N)no3)cc2)c(C)c1Cl | -7.55
41 | COc1ccc(N2CCN(Cc3cc(Br)c(OC)cc3OC)CC2)cc1 | -1.98
42 | Cc1ccnc2nc(NC(=O)CN3C(=O)c4ccccc4C3=O)nn12 | 6.7
43 | COc1ccc(CCNC(=O)Cn2nc(C(F)(F)F)c(Br)c2C)cc1OC | 0.206
44 | CC(NC(=O)c1nc2nc(-c3ccccc3)cc(C(F)(F)F)n2n1)c1ccccc1 (centres unmarked) | 4.1
45 | CN1C(=O)C(=Cc2cccs2)C(=O)N(C)C1=O | 2.6
46 | CC(C)(C)NC(=O)CN(Cc1cccc(Cl)c1)S(=O)(=O)c1ccc(Cl)cc1 | -2.19
47 | CN(C)c1ccc(-c2nocc2C#N)cc1 | 7.42
48 | CSc1nc(C(C)C)ccc1CNC(=O)CC(C)c1ccccc1 (centres unmarked) | -2.5
49 | CCn1nc(C)c(C2C(C#N)=C(N)OC3=C2C(=O)CCC3)c1C (centres unmarked) | 1.57
50 | CC1CCCCC1N1CNc2c(c(=O)n(C)c(=O)n2C)C1 (centres unmarked) | 10.6
51 | CCOC(=O)/C(C#N)=C1/C=CN(Cc2ccccc2)C=N1 | -0.771
52 | O=C1C(c2ccncc2)N(CCC2=CCCCC2)C(=O)CN1C1CCCCC1 (centres unmarked) | -3.94

Row | Compound | % Inhibition @ 10 uM [%]
53 | Cc1sc(NC(=O)c2cccc(C(F)(F)F)c2)c(C(=O)OC(C)C)c1C | 2.8
54 | Cc1cc(O)nc(SCC(=O)Nc2c(Cl)cc(Cl)cc2Cl)n1 | -5.01
55 | CS(=O)(=O)N(CC(=O)NCCc1ccccc1)c1ccc(F)cc1 | -0.598
56 | COc1ccc(N(Cc2ccc(F)cc2)C(=O)c2ccccc2[N+](=O)[O-])cc1 | -3.62
57 | CC(C)CNC(=O)c1ccccc1N(C)S(C)(=O)=O | -1.44
58 | O=C(COc1ccccc1)N1CCc2ccccc21 | 2.42
59 | Cc1ccc(C2=NC3(CCN(C(=O)c4ccccc4C)CC3)NC2=O)cc1C | 2.01
60 | COc1ccc(N2CCOCC2)cc1 | 3.74
61 | CC(C)Oc1ccc(C(CC(=O)O)N2C(=O)c3ccccc3C2=O)cc1 (centres unmarked) | -3.07
62 | CC(NC(=O)Cc1ccccc1)c1ccc2c(c1)OCCO2 (centres unmarked) | -0.622
63 | Cc1n[nH]c(C)c1CCCOc1ccccc1F | -2.18
64 | CCNS(=O)(=O)c1cccc2c1C(=O)c1ccccc1C2=O | 17.1
65 | Cc1cc2nc(O)c(O)nc2cc1S(=O)(=O)N1CCCC(C)C1 (centres unmarked) | 6.16
66 | CC1CC2(CCCC2)N(C(=O)c2ccccc2)Cc2ccccc21 (centres unmarked) | 0.0538
67 | N#Cc1ccc(-c2ccc(OCC(N)=O)cc2)cc1 | 0.324
68 | Cc1cc(=O)n2nc(N(C)CC(=O)NCc3ccccc3)sc2n1 | -2
69 | O=C(COc1ccccc1)Nc1nn2c(-c3ccco3)nnc2s1 | 4.46
70 | Cn1c(C(=O)N2CCc3ccccc3C2)cc2sccc21 | -3.08
71 | Cc1ccc(C(=O)CCC(=O)NCc2ccc(Cl)cc2)cc1 | 0.238
72 | O=C(Nc1ccc(C(F)(F)F)cc1)c1cc(F)c(Cl)nc1Cl | 1.93
73 | CCN(CC)C(C(=O)NC1CCCC1)c1ccc(OC)cc1 (centres unmarked) | 2.84
74 | COCCCN(Cc1ccco1)C(=O)Cn1ncc2c1-c1cc(C)ccc1OC2 | -3.5
75 | O=C(c1ccccc1)c1ccc2nc(NCCCO)c3nncn3c2c1 | -9.3
76 | Cc1cccc(C)c1NC(=O)c1ccccc1NC(=O)c1ccccc1 | 3.93
77 | Cc1nc2ccsc2c(=O)n1-c1ccccc1Cl | 2.25
78 | CC1=C(C(=O)OCC2CCCO2)C(c2ccc(Cl)cc2Cl)CC(=O)N1 (centres unmarked) | 2.47

Row | Compound | % Inhibition @ 10 uM [%]
79 | COc1ccccc1NS(=O)(=O)c1ccc(Cl)cc1 | -8.13
80 | Cc1ccsc1CN(C(=O)c1oc2ccc(Cl)cc2c1C)C1CCS(=O)(=O)C1 (centres unmarked) | -2.85
81 | CN1CCN(C2CC(=O)N(c3ccc4c(c3)OCCO4)C2=O)CC1 (centres unmarked) | -3.37
82 | OC(COc1ccc(C23CC4CC(CC(C4)C2)C3)cc1)CN1CCCCC1 (centres unmarked) | -0.294
83 | COC(=O)c1ccc(C(=O)O/N=C(\N)c2ccc(C)n2C)cc1 | 0.9
84 | COCC(C)NC(=O)CCc1ccccc1 (centres unmarked) | -18.8
85 | C=CCOc1ccccc1/C=C1/SC(=O)N(CN2CCOCC2)C1=O | -3.63
86 | CCN(CCC1=C(C)CCCC1(C)C)CCN(C)C | -5.31
87 | CCOC(=O)c1cc2c(n(-c3ccccc3)c1=O)CC(C)(C)CC2=O | -0.13
88 | CCOC(=O)N1CCC(N2C(=O)c3ccc(C(=O)NC4CCCC4)cc3C2=O)CC1 | -1.03
89 | Nc1nnc(SCC(=O)n2c3c(c4c2CCCC4)CCCC3)s1 | 0.67
90 | O=C(NCCc1ccccc1)c1ccc(CS(=O)(=O)c2cccc(C(F)(F)F)c2)o1 | 2.14
91 | O=C(c1cccc(F)c1)N1CCCN(C(=O)c2cccc(F)c2)CC1 | -4.7
92 | NC(=O)C1(N2CCCCC2)CCN(c2ccc3nnc(-c4ccccc4)n3n2)CC1 | -1.37
93 | Cn1c(-c2ccc(F)cc2)cnc1NCc1cc(Cl)ccc1O | -2.91
94 | OCCn1c(SCCOc2ccccc2)nc2ccccc21 | -2.72
95 | COc1ccc(-c2nc3cc(C)ccn3c2NC(=O)CC(C)C)cc1 | 4.77
96 | CS(=O)(=O)N(Cc1ccccc1Cl)c1ccc(C(=O)NC2CC3CCC2C3)cc1 (centres unmarked) | 4.57
97 | CC(Cc1c[nH]c2ccccc12)NC(N)=O (centres unmarked) | -0.128
98 | C=CCN1C(=O)S/C(=C\c2ccc(CC)s2)C1=O | -3.32
99 | FC(F)(F)c1cccc(N2CCN(Cc3cc(Br)cs3)CC2)c1 | -5.41
100 | CC12C=CC(O1)C1C(=O)N(c3cccc4ccccc34)C(=O)C12 (centres unmarked) | 0.76
101 | COc1cccc(CN2CCN(Cc3ccc(OC)c(Br)c3)CC2)c1 | -1.8
102 | CC1=[N+]([O-])C(C)(C)C(c2ccc(C)o2)=[N+]1[O-] | -3.41
103 | N#CC(NC(=O)C(CC(=O)N1CCOCC1)CS(=O)(=O)Cc1ccccc1)c1cccs1 (centres unmarked) | -1.83
104 | COc1ccccc1C(=O)NCCSCc1ccccc1Cl | -3
